Measurements taken from PubChem BioAssay AID1745853 (National Center for Advancing Translational Sciences (NCATS), 2022).
Where “and” joins values, the source holds several entries; their conditions need not be identical. Equal entries are not always repeated. The list shows a part of the results. Shown are side measurements of this screen, not its main read-out; they come without a call.

How the values were obtained:
Assay in all cases: Primary Screen for Target Class Profiling of Small Molecule Inhibitors of Methyltransferases
[1] = target: Glycine N-methyltransferase (Homo sapiens) (UniProt Q14749); settings: purified enzyme, MTase-Glo SAH luminescence; measured here: GNMT inhibition; at 40 µM; stronger effect = lower value
Procedure, shortened: (§1)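 Each enzyme was reacted with SAM and its substrate, with compounds tested once at 40 uM; SAH formed was read by MTase-Glo luminescence.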

[2] = target: Guanidinoacetate N-methyltransferase (Homo sapiens) (UniProt Q14353); settings: purified enzyme, MTase-Glo SAH luminescence; measured here: GAMT inhibition; at 40 µM; stronger effect = lower value
Procedure, shortened: as §1

[3] = target: Histamine N-methyltransferase (Homo sapiens) (UniProt P50135); settings: purified enzyme, MTase-Glo SAH luminescence; measured here: HNMT inhibition; at 40 µM; stronger effect = lower value
Procedure, shortened: as §1

[4] = target: Nicotinamide N-methyltransferase (Homo sapiens) (UniProt P40261); settings: purified enzyme, MTase-Glo SAH luminescence; measured here: NNMT inhibition; at 40 µM; stronger effect = lower value
Procedure, shortened: as §1

[5] = target: Phenylethanolamine N-methyltransferase (Homo sapiens) (UniProt P11086); settings: purified enzyme, MTase-Glo SAH luminescence; measured here: PNMT inhibition; at 40 µM; stronger effect = lower value
Procedure, shortened: as §1
On the % scale 0 is the no-effect control and ±100 the full control effect.

Row | Compound | activity change, negative = inhibition [1] [%] | activity change, negative = inhibition [2] | activity change, negative = inhibition [3] [%] | activity change, negative = inhibition [4] | activity change, negative = inhibition [5]
1 | Cc1ccc(F)c(C(=O)N[C@H]2CCOC[C@H]2C2CCOCC2)c1Cl | -5.29 | -6.53% | -2.51 | -6.24% | 1.88%
2 | CN(CCc1ccccc1)C(=O)c1cc(-c2ccc[nH]2)n[nH]1 | -33.7 | -19.2% | -9.72 | -21.6% | -22.7%
3 | CCc1ccc(S(=O)(=O)Nc2ccc3c(c2)n(C)c(=O)n3C)cc1 | -2.94 | -0.16% | -4.21 | -15.8% | -11.2%
4 | Cc1cccc(Cn2nc3n(C(C)C)c(=O)c4ccc(C(=O)NCC(C)C)cc4n3c2=O)c1 | -3.87 | 3.47% | 0.124 | -0.86% | -0.106%
5 | N#CC1CCN(C(=O)c2nc(-c3ccc(Cl)cc3Cl)c3ccccn23)CC1 | -5.3 | -3.1% | -3.24 | -18% | -9.14%
6 | NS(=O)(=O)c1cc2c(cc1Cl)NCNS2(=O)=O | -0.864 | 3.07% | 0.59 | -6.37% | 4.33%
7 | CCCN1C(=O)c2cc(C(=O)NCc3cccc(C)c3)nn2CC1(C)C(=O)NC1CCCC1 (stereo not drawn) | -1.03 | 4.73% | 0.871 | -1.15% | 2.11%
8 | CC(=O)O[C@@H]1[C@H](O[C@@H]2O[C@@H](CO)[C@H](O)[C@H]2O)[C@@H](O[C@@H]2O[C@@H](C)[C@H](O[C@@H]3OC[C@@H](O)[C@H](O)[C@H]3O)[C@@H](O)[C@H]2O)[C@H](OC(=O)[C@]23CCC(C)(C)C[C@H]2C2=CCC4[C@@]5(C)CC[C@H](O[C@@H]6O[C@H](C(=O)O)[C@@H](O)[C@H](O)[C@H]6O[C@@H]6O[C@H](CO)[C@H](O)[C@H](O)[C@H]6O)[C@@](C)(C=O)C5CC[C@@]4(C)[C@]2(C)C[C@H]3O)O[C@@H]1C (stereo partly drawn) | 5.44 | 17.3% | 12.7 | 6.71% | 12.1%
9 | NC(N)=N/N=C/c1c(Cl)cccc1Cl | 0.741 | 5.07% | -31.3 | -8.85% | 0.059%
10 | CC(C)[C@@H]1C[C@@H]2C[C@@H](Nc3ccccn3)C[C@]2(c2ccccc2)CO1 | -5.98 | -7.54% | -6.15 | -11.5% | -5.53%
11 | CC1CCCC(C)N1C(=O)c1ccc2nc(-c3cccnc3)oc2c1 (stereo not drawn) | -7.82 | -7.43% | -3.46 | -14.4% | -10.5%
12 | COc1cc2c(c(O)c1OC/C=C(\C)CC/C=C(/C)CCC=C(C)C)CN(C(CCC(=O)O)C(=O)O)C2=O (stereo not drawn) | -2.63 | -6.1% | 3.12 | -21.7% | -1.16%
13 | O=C(CC1CCCC1)N1CC[C@@H]2COCCN(Cc3ccccc3)[C@@H]2C1 | -1.66 | 2.15% | 2.22 | -5.77% | 0.394%
14 | CN(C)CCc1c[nH]c2ccc(C[C@H]3COC(=O)N3)cc12 | -2.66 | -0.661% | -4.64 | -16.5% | 1.44%
15 | O=C(CCn1ccc2cc(S(=O)(=O)N3CCCCC3)ccc21)NCc1ccccc1Cl | 1.1 | 3.72% | -0.913 | -4.3% | -3.91%
16 | COc1ccccc1-c1nocc1CCC(=O)O | -0.945 | -0.336% | 1.86 | -1.76% | 3.64%
17 | COCCn1cnnc1C(C)NC(=O)c1cn(C2CCC(N)CC2)nn1 (stereo not drawn) | -3.16 | -4.61% | -1.81 | -11.4% | -4.21%
18 | CN(C)CCC=C1c2ccccc2C=Cc2ccccc21 | -4.6 | 2.38% | -47.4 | -11.2% | 1.23%

Row | Compound | activity change, negative = inhibition [1] [%] | activity change, negative = inhibition [2] | activity change, negative = inhibition [3] [%] | activity change, negative = inhibition [4] | activity change, negative = inhibition [5]
19 | CNc1cc(C2CC(NC(=O)COc3ccc(Cl)cc3C)C2)nc(N)n1 (stereo not drawn) | -9.6 | -9.67% | -59.2 | -33.2% | -14.2%
20 | COc1ccc(-c2ccc(-c3cn(C(=O)N4CCCCC4c4ccccc4)nn3)cc2)cc1 (stereo not drawn) | 5.86 | -25.3% | 10.9 | -30% | -2.78%
21 | C/C=C/C=C/C1=C2C(=O)C3(C)C4C(C(=O)CC(O)/C=C/C)=C(O1)C1(C)C2C2(C)OC1(O)C4(C)OC23O (stereo not drawn) | -6.38 | -5.8% | 4.23 | -14.9% | -0.647%
22 | CCCn1c(=O)c2ccccc2n2c(=O)n(CC(=O)Nc3cc(C)cc(C)c3)nc12 | 4.37 | 3.47% | 9.32 | -2.84% | 4.64%
23 | CC(C)(F)C[C@H](N[C@@H](c1ccc(-c2ccc(S(C)(=O)=O)cc2)cc1)C(F)(F)F)C(=O)NC1(C#N)CC1 | – | -8.41% and 1.72% | – | -23.3% and -17.1% | -3.22% and -3.19%
24 | CC1CCCCN1CCCN1C(=O)c2cc3occc3n2CC1(C)C(=O)NC1CCCCCC1 (stereo not drawn) | -6.79 | -4.03% | -8.93 | -1.33% | -6.22%
25 | Cc1cccc(N2C(=O)c3cc(-c4ccccc4)nn3CC2(C)C(=O)NCc2ccccc2)c1C (stereo not drawn) | 2.42 | 0.718% | 3 | -1.86% | 0.634%
26 | CN1C(=O)c2cc(C(=O)NCc3ccccc3F)nn2CC1(C)C(=O)NC1CCCCCC1 (stereo not drawn) | 4.07 | 0% | -0.723 | 3.33% | -0.143%
27 | CC(=O)Nc1c2n(c3ccccc13)CC(C)(C(=O)NC1CCCC1)N(C(C)c1ccccc1)C2=O (stereo not drawn) | 1.68 | 4.04% | -5.46 | 5.42% | 3.41%
28 | COc1ccccc1CN(C)C1CCc2ccccc21 (stereo not drawn) | -3.27 | -7.74% | -33.6 | -11.2% | -8.23%
29 | O=C(NC1CCCCC1)c1nn(CCOc2ccccc2)c2c1CNCC2 | -8.7 | -6.74% | -9.97 | -15.6% | -15.6%
30 | CC(=O)O[C@@H]1C(=O)C(C)=C(CCC(C)CC(=O)O)[C@@]2(C)CCCC(C)(C)C12 (stereo partly drawn) | -2.62 | -0.876% | 5.28 | -15.3% | -5.43%
31 | CC(C)OCCCn1c(=O)c2ccccc2n2c(CCC(=O)NCCc3ccccc3)nnc12 | -9.35 | 2.26% | -5.65 | 5.11% | -7.07%
32 | O=C(N[C@H]1CCOC[C@H]1C1CCOCC1)c1cc2ncccn2n1 | -1.21 | 0.301% | 0.386 | 0.444% | 2.84%
33 | Cc1cc2c(cc3n2CC(C)(C(=O)NC2CCCCC2)N(Cc2cccnc2)C3=O)o1 (stereo not drawn) | 4.89 | 1.11% | 9.52 | 12.2% | 5.7%
34 | COc1cccc(Cn2ncc3c4sc(S(C)=O)cc4n(C)c3c2=O)c1 (stereo not drawn) | -1.16 | 1.89% | 7.2 | -8.89% | 7.21%
35 | N#CC(CCCN1CCC(O)(c2ccc(Cl)cc2)CC1)(c1ccccc1)c1ccccc1 | 3.85 | 1.94% | -0.04 | -33.1% | -11.1%
36 | C[C@@H]1O[C@@H](O[C@H]2[C@H](O[C@H]3CC[C@@]4(C)C(CC[C@]5(C)C4CC=C4C6CC(C)(C)CC[C@]6(C(=O)O[C@@H]6O[C@H](CO[C@@H]7O[C@H](CO)[C@@H](O[C@@H]8O[C@@H](C)[C@H](O)[C@@H](O)[C@H]8O)[C@H](O)[C@H]7O)[C@@H](O)[C@H](O)[C@H]6O)CC[C@]45C)[C@]3(C)CO)OC[C@H](O)[C@@H]2O)[C@H](O)[C@H](O)[C@H]1O (stereo partly drawn) | 0 | -1.54% | 4.43 | -15.8% | 7.32%
